Reference: PMC5623906
These are yes or no findings as the source states them, for the method shown. Binding seen in cells or lysates may run through a third protein. Some binding calls cover weakened binding; strength is not graded here. Values belong to the substance of their own block, whether it stands above or below them.

The chains behind the UniProt entries cited, without tags or fusion partners. Where a name states a change or a piece, a line headed by the entry shows the natural chain unless it says otherwise. Residues count along the entry.
UniProt Q04206: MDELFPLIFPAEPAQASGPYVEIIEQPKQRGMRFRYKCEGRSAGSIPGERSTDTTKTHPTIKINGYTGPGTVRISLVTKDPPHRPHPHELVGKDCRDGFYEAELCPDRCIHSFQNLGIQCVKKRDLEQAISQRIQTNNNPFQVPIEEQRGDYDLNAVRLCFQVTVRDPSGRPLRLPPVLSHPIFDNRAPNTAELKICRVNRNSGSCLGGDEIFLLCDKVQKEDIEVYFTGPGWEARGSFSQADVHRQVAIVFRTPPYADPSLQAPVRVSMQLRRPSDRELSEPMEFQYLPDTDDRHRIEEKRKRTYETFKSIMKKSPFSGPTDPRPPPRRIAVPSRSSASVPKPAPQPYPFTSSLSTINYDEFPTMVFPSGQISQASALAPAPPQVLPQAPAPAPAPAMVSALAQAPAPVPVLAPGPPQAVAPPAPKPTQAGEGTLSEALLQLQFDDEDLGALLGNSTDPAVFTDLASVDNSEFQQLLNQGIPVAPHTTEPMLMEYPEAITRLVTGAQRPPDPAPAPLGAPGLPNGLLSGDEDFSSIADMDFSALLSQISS

Columns and labels:
[1] = molecular target: GST-PRAS40 (proline-rich AKT substrate of 40 kDa), full length (human) (UniProt Q96B36); test: pull-down; GST-tagged and Venus-tagged (or otherwise tagged) proteins co-transfected in cells; lysis in CHAPS buffer (40 mM HEPES pH 7.5, 120 mM NaCl, 1 mM EDTA, 0.3% CHAPS); glutathione beads overnight at 4 °C; western blot of eluates
[2] = molecular target: T1, PRAS40 98-110 fragment (human); test: as above
T1 sequence: LAREDNEEDEDEP

GST-PRAS40 1-51 (human) = GST-PRAS40 1-51 (human) (UniProt Q96B36); test: as above
GST-PRAS40 1-125 (human) = GST-PRAS40 1-125 (human) (UniProt Q96B36); test: as above
GST-PRAS40 1-75 (human) = GST-PRAS40 1-75 (human) (UniProt Q96B36); test: as above
[3] = molecular target: GST-PRAS40 98-256 (human) (UniProt Q96B36); test: as above
[4] = molecular target: GST-PRAS40 23-256 (human) (UniProt Q96B36); test: as above
[5] = molecular target: GST-PRAS40 44-256 (human) (UniProt Q96B36); test: as above
[6] = molecular target: GST-PRAS40 110-256 (human) (UniProt Q96B36); test: as above
GST-PRAS40 1-23 (human) = GST-PRAS40 1-23 (human) (UniProt Q96B36); test: as above
[7] = molecular target: GST-PRAS40 75-256 (human) (UniProt Q96B36); test: as above
GST-PRAS40 1-110 (human) = GST-PRAS40 1-110 (human) (UniProt Q96B36); test: as above
[8] = molecular target: GST-PRAS40 (proline-rich AKT substrate of 40 kDa), full length (human) (UniProt Q96B36); test: pull-down; GST-PRAS40 pull-down of exogenous or endogenous P65 with Venus- or HA-tagged p65 180-200 co-expressed as competitor (Figure 6a, b)
[9] = molecular target: GST-PRAS40 (proline-rich AKT substrate of 40 kDa), full length (human) (UniProt Q96B36); test: pull-down; GST pull-down of P65 by full-length PRAS40 with the PRAS40 98-110 fragment co-expressed as competitor (Figure 4c lanes 5 and 6)
[10] = molecular target: endogenous p65 (A375 and A549 cells) (human (endogenous in A375 and A549)) (UniProt Q04206); test: co-IP; endogenous proteins in A375 and A549 lysates; NP-40 lysis buffer (50 mM Tris-HCl pH 7.6, 150 mM NaCl, 1 mM EDTA, 1% NP-40); antibody overnight at 4 °C, protein A/G-Sepharose; immunoblot

Substance: Venus-p65 (P65 protein with the Venus-Flag tag), full length (from UniProt Q04206 1-551)
binding [1]: binds
binding [2]: binds
binding (GST-PRAS40 1-51 (human)): no binding
binding (GST-PRAS40 1-125 (human)): binds
binding (GST-PRAS40 1-75 (human)): no binding
binding [3]: binds
binding [4]: binds
binding [5]: binds
binding [6]: no binding
binding (GST-PRAS40 1-23 (human)): no binding
binding [7]: binds
binding (GST-PRAS40 1-110 (human)): binds
binding [8]: binds
binding [9]: binds

Substance: endogenous PRAS40 (from UniProt Q96B36 1-256)
binding [10]: binds

Substance: p65 1-190 (from UniProt Q04206 1-190) (domain or fragment)
binding [1]: no binding

Substance: p65 1-313 (Rel homology domain) (from UniProt Q04206 1-313) (domain or fragment)
binding [1]: binds

Substance: p65 1-521 (from UniProt Q04206 1-521) (domain or fragment)
binding [1]: binds

Substance: p65 190-290 (from UniProt Q04206 190-290) (domain or fragment)
binding [1]: no binding

Substance: p65 271-551 (from UniProt Q04206 271-551) (domain or fragment)
binding [1]: no binding

Results, then the substance that gave them:

binding [8]: binds
Substance: endogenous P65 (cells transfected with GST-PRAS40) (from UniProt Q04206 1-551)

binding [1]: binds
Substance: p65 1-196 (from UniProt Q04206 1-196) (domain or fragment)

binding [1]: binds
Substance: p65 1-534 (from UniProt Q04206 1-534) (domain or fragment)

binding [1]: binds
Substance: p65 126-313 (from UniProt Q04206 126-313) (domain or fragment)
